This is one part of the list.

B1: PhoQ; a variant is named by its letters at X, in order, P23837 (parent)
chain: MKKLLRLFFPLSLRVRFLLATAAVVLVLSLAYGMVALIGYSVSFDKTTFRLLRGESNLFYTLAKWENNKLHVELPENIDKQSPTMTLIYDENGQLLWAQRDVPWLMKMIQPDWLKSNGFHEIEADVNDTSLLLSGDHSIQQQLQEVREDDDDAEMTHSVAVNVYPATSRMPKLTIVVVDTIPVELKSSYMVWSWFIYVLSANLLLVIPLLWVAAWWSLRPIEALAKEVRELEEHNRELLNPATTRELTSLVRNLNRLLKSERERYDKYRTTLTDLTHSLKTPLXXLQXXLRSLRSEKMSVSDAEPVMLEQISRISQQIGYYLHRASMRGGTLLSRELHPVAPLLDNLTSALNKVYQRKGVNISLDISPEISFVGEQNDFVEVMGNVLDNACKYCLEFVEISARQTDEHLYIVVEDDGPGIPLSKREVIFDRGQRVDTLRPGQGVGLAVAREITEQYEGKIVAGESMLGGARMEVIFGRQHSAPKDE

Variants of B1 are the subject of the assay. Briefly: enrichment ratio after two sorts for PhoP signalling (ratio (wild type AVST 3.29)); higher = more functional. Particulars: with PhoP (E. coli).
In the case of TFKI, the enrichment ratio was no more than 0.25.

Regarding RQHL, the enrichment ratio is no more than 0.25.

Turning to RVVE, the enrichment ratio is no more than 0.25.

For the variant SKMM, the enrichment ratio came out at 24.1.

For the variant GPSL, the enrichment ratio is no more than 0.25.

As to YWPF, the enrichment ratio was no more than 0.25.

In the case of RKFK, the enrichment ratio is no more than 0.25.

In the case of SCNR, the enrichment ratio is no more than 0.25.

NEYT: the enrichment ratio is no more than 0.25.

On to FQKE, for which the enrichment ratio was no more than 0.25.

As for MINV, the enrichment ratio is no more than 0.25.

Turning to WKHF, the enrichment ratio was no more than 0.25.

Turning to HFKF, the enrichment ratio was no more than 0.25.

Consider LIWW, for which the enrichment ratio was no more than 0.25.

Turning to SERT, the enrichment ratio was no more than 0.25.

In the case of IYSN, the enrichment ratio is no more than 0.25.

Take CHVM: the enrichment ratio was no more than 0.25.

For GLHK, the enrichment ratio is no more than 0.25.

Take YMVD: the enrichment ratio is no more than 0.25.

Turning to NPKW, the enrichment ratio is no more than 0.25.

Regarding PFWW, the enrichment ratio was no more than 0.25.

In the case of SYWE, the enrichment ratio is no more than 0.25.

As for ISDE, the enrichment ratio was no more than 0.25.

With FLEN, the enrichment ratio is no more than 0.25.

On to ERWQ, for which the enrichment ratio is no more than 0.25.

On to MGYM, for which the enrichment ratio stood at 8.17.

For NEVA, the enrichment ratio was no more than 0.25.

For VQEY, the enrichment ratio was no more than 0.25.

For AKAA, the enrichment ratio turned out to be 4.65.

As to FDMV, the enrichment ratio was no more than 0.25.

With INPV, the enrichment ratio is no more than 0.25.

EYHQ: the enrichment ratio was no more than 0.25.

With SGYG, the enrichment ratio is no more than 0.25.

Turning to MHWV, the enrichment ratio was no more than 0.25.

As to IATW, the enrichment ratio is no more than 0.25.

Consider QALI, for which the enrichment ratio turned out to be 5.29.

Consider RRAE, for which the enrichment ratio was no more than 0.25.

As for QPLF, the enrichment ratio is no more than 0.25.

In the case of YDEA, the enrichment ratio was no more than 0.25.

Turning to MCDF, the enrichment ratio was no more than 0.25.

ICSF: the enrichment ratio was no more than 0.25.

As for EMLV, the enrichment ratio was no more than 0.25.

Turning to RMLK, the enrichment ratio was 1.36.

Take DPCF: the enrichment ratio is no more than 0.25.

With FKYA, the enrichment ratio is no more than 0.25.

Consider THIP, for which the enrichment ratio was no more than 0.25.

Turning to LVEF, the enrichment ratio is no more than 0.25.

TNQW: the enrichment ratio is no more than 0.25.

Regarding TGIW, the enrichment ratio is no more than 0.25.

As for VDFY, the enrichment ratio is no more than 0.25.

In the case of EGDH, the enrichment ratio was no more than 0.25.

For MDWM, the enrichment ratio was no more than 0.25.

Regarding RAEH, the enrichment ratio was no more than 0.25.

RSNK: the enrichment ratio is no more than 0.25.

Consider DSPK, for which the enrichment ratio was no more than 0.25.

IPGV: the enrichment ratio was no more than 0.25.

In the case of FWPM, the enrichment ratio is no more than 0.25.

Turning to NPGT, the enrichment ratio is no more than 0.25.

Take LPPI: the enrichment ratio is no more than 0.25.

Regarding MARR, the enrichment ratio was no more than 0.25.

Consider SWKV, for which the enrichment ratio is no more than 0.25.

Take HLWF: the enrichment ratio is no more than 0.25.

As to IWHM, the enrichment ratio was no more than 0.25.

On to WQPL, for which the enrichment ratio is no more than 0.25.

For SYFR, the enrichment ratio is no more than 0.25.

As for ECPL, the enrichment ratio was no more than 0.25.

Consider VYYH, for which the enrichment ratio was no more than 0.25.

For the variant ALMV, the enrichment ratio worked out at 5.76.

Turning to PHRW, the enrichment ratio was no more than 0.25.

KIRQ: the enrichment ratio was no more than 0.25.

Turning to FVWE, the enrichment ratio was no more than 0.25.

For the variant WQQA, the enrichment ratio was no more than 0.25.

Take YKFI: the enrichment ratio was no more than 0.25.

For the variant HFCN, the enrichment ratio is no more than 0.25.

In the case of SEPT, the enrichment ratio was no more than 0.25.

With HGNS, the enrichment ratio is no more than 0.25.

Take PEPR: the enrichment ratio is no more than 0.25.

As for ANYQ, the enrichment ratio is no more than 0.25.

With LGYH, the enrichment ratio was no more than 0.25.

For the variant SGIV, the enrichment ratio is 7.69.

As for NEPQ, the enrichment ratio was no more than 0.25.

On to HIYA, for which the enrichment ratio was no more than 0.25.

As for MHWP, the enrichment ratio was no more than 0.25.

As for SFQP, the enrichment ratio was no more than 0.25.

These data come from a collection of fitness landscapes (doi:10.1126/science.1257360).
